Values of other authors as cited in patent publication US20150086650A1 (priority 2012, published 2015).

CO/C=C(/C(=O)OC)c1ccccc1Oc1cc(Oc2ccccc2C#N)ncn1 [Azoxystrobin]
skin irritation / sensitization: irritant to skin and may cause sensitization
